The record followed here is the RNAGym collection of RNA variant scans (doi:10.7554/elife.90254).

The source gives no read counts; variants with many changes may rest on few reads.

The chains are these.
B1: LINE1-mini (parent)
chain: GGCAGAGCUCAACACAGCGUGGCAAAGUGGCUGUGGCUAGACUGCC

The variants in this data set derive from B1. Put plainly: self-cleavage, relative activity (ratio to wild type); higher = more cleavage; in vitro, sequencing; the parent is a self-cleaving ribozyme.
GGCAGAGCUCAACCCAGCGUGGCAAAGUUGCAGUGUCUAGACUGCC [A14C G29U U32A G36U]: the self-cleavage was 0.07.

In the case of AGCAGGGCUCAUCACAGCGUGGCAAAGUGGCUGUGGCUAGACUGCC [G1A A6G A12U], the self-cleavage turned out to be 0.03.

Regarding GGCAGAGUUCAACACCGCGUGGCAAACUGGAUGUGGCUAGACUGCC [C8U A16C G27C C31A], the self-cleavage was found to be 0.02.

In the case of CGCAGAGCUCAACACAACGUGGCAAAAAGGCUGUGGCUAGACUGCC [G1C G17A G27A U28A], the self-cleavage came out at 0.

For the variant GGCAGAGCUCAAAACAGGGUGGCAAAUUGGCUAUGGAUAGACUGCC [C13A C18G G27U G33A C37A], the self-cleavage was determined as 0.03.

With GGCAGAGCUCAACACAACGUGGGAAAUUGGCUGUGCCUAGAGUGCC [G17A C23G G27U G36C C42G], the self-cleavage amounted to 0.

In the case of GGCAUAGCUCAACACAGCGUGGCAAAGUAGCUGUGGGUAGAAUGCC [G5U G29A C37G C42A], the self-cleavage is 0.01.

GUCAGAGCUCAACACAGCGCGGCAAAGUGGCUGUGACUAGGCUGCG [G2U U20C G36A A41G C46G]: the self-cleavage turned out to be 0.01.

As to GGCAGAGCUCAACACAGCGUGGCAAGUUGACUGUGGCUGGACUGCC [A26G G27U G30A A39G], the self-cleavage came out at 0.19.

For CGCAGAGCUCAACAAAGCGUGGCAAAGUGGGUGUGGCUAGACUGCC [G1C C15A C31G], the self-cleavage stood at 0.

Consider GGCCGAGCUCAACACAGCGUGGUACAGUGGCUGUGGCUAGACUGCU [A4C C23U A25C C46U], for which the self-cleavage was 0.1.

Turning to GGCAGAGCUCAACACAGUGUGGCAAAGUUGCUAUGGCUAGACUGCC [C18U G29U G33A], the self-cleavage stood at 0.09.

For the variant GGCAGAUCUCAACACAGCGUGGCAUAGUGGGUGUGGCUAGACUGCC [G7U A25U C31G], the self-cleavage stood at 0.02.

On to GGCAGAGCUCAACACAGCGUGGCAAAGUUGCUGUGGGGAGACUGCC [G29U C37G U38G], for which the self-cleavage amounted to 0.

For the variant UGCAGAGCUCCACACAGCGUGGCAAAGUGUCUGUGGCUAGACUGCC [G1U A11C G30U], the self-cleavage was found to be 0.03.

For the variant GGCAGAGCUCAACGCUGCGUGGCAAAGUGGCUGUGGCUAGAAAGCC [A14G A16U C42A U43A], the self-cleavage came to 0.

Regarding GACACAGCAAAACACAGCGUGGCAAAGUGGCUGUGGCUAGACUCCC [G2A G5C U9A C10A G44C], the self-cleavage turned out to be 0.05.

On to GGCAGAGCUAAACAACGCAUGGCAAAGUGGCUGUGUCUAGACUGCC [C10A C15A A16C G19A G36U], for which the self-cleavage was determined as 0.

GGUAUAGCUCAACACAGCGUGGCAAAAUGGCUGUGGCUAAACUGCC [C3U G5U G27A G40A]: the self-cleavage turned out to be 0.01.

GGCAGAGCUUAACACAGCGUGGCAAGGUGGCUCUGGCUAGACUGCC [C10U A26G G33C]: the self-cleavage was 0.01.

As to GGCAGAGAUCAUUACAGCGUGGAAAAGUGGCUGUGGCUAGACUACC [C8A A12U C13U C23A G44A], the self-cleavage is 0.07.

Regarding GGCAGAGUUCGACACAGCGUGGCAAACUGGCUGUGGCUAGACUGCC [C8U A11G G27C], the self-cleavage is 0.02.

Turning to GACAGGGCUCAACACAGCGUGGCAAAGUGGCUUUGGCUAGACUGCC [G2A A6G G33U], the self-cleavage turned out to be 0.07.

For the variant GGCAGAGGUCAACACAGCGUGACAAAGUCGCUGUGGCUAGACUUCC [C8G G22A G29C G44U], the self-cleavage was found to be 0.

In the case of GGCAGAGCACAACGCAGCGUGGCAAAGUGGCUGUGGCUAGACUGCG [U9A A14G C46G], the self-cleavage stood at 0.1.

For the variant GGCAGAGCCCAAGACAGCGUGGCAAAUUGGCCGUGGCUAGACUGCC [U9C C13G G27U U32C], the self-cleavage was determined as 0.02.

As to GACAGAGCGCAACACAACGCGGCAAAGUCGCUGAGGCUAGACUGCC [G2A U9G G17A U20C G29C U34A], the self-cleavage turned out to be 0.12.

Regarding GGCAGAGUUCAUAACAGCGUGGAAAAGCGGCUGUGGCUACACUGCC [C8U A12U C13A C23A U28C G40C], the self-cleavage came to 0.05.

GGCAGAGCGCAACACAGCGUGGCAAAGUGGCUGUGUCUGGACUGCC [U9G G36U A39G]: the self-cleavage came out at 0.04.

For the variant GGCAGAGCUCAACACAGCGAAGCAAAGUAGCUGUGGUUAGACUGCC [U20A G21A G29A C37U], the self-cleavage is 0.02.

GGCAGAGCUCAACACAGCGUGCCAAAGUGUCUGUGGAUAGACAGCC [G22C G30U C37A U43A]: the self-cleavage is 0.06.

With GGCAUAGCUCAACACAGCGCGGCAGAGUGGCUGUGACUAGACUGCC [G5U U20C A25G G36A], the self-cleavage worked out at 0.06.

Take GCCAGAGCUCGACACAGCGAGGUAAGGUGGCUGUGGCUAGACUGCC [G2C A11G U20A C23U A26G]: the self-cleavage came to 0.01.

Consider GGCAGAGCUCAACACAGCGUGGUAAAGUGAGUGUGGCUAGACAGCC [C23U G30A C31G U43A], for which the self-cleavage was 0.18.

Take GGAAGAGCGCAACACCGCCUGGCAAAGUGGCUGUGGCUAGACUACC [C3A U9G A16C G19C G44A]: the self-cleavage stood at 0.03.

Consider GGCAGAGAUCAACACAGCGUGGCAAAGUGGCUGUGGCAAGAGUGCC [C8A U38A C42G], for which the self-cleavage was found to be 0.26.

As for GGCAGAGCUCAACACAGCGGGGCAAAGUUGGAGUGGCUAGACUGCC [U20G G29U C31G U32A], the self-cleavage amounted to 0.06.

For GGCAGAGCUCAACACGGCGUGGCAAAGUGGCUGUGGGUAGACUGAC [A16G C37G C45A], the self-cleavage was found to be 0.05.

Regarding GGCAAAGCCAAACACAGCGUGGCAAAGUGGCUGUGGCCAGACCGGC [G5A U9C C10A U38C U43C C45G], the self-cleavage turned out to be 0.02.

Consider GUCAGAGCUACACACAGCGUGGCAAAGUGGCCGUGGCUAGACUGCC [G2U C10A A11C U32C], for which the self-cleavage turned out to be 0.

GGCAGAGAUCAACACAGCGUUGCAAAAUGGCCGUGGCUAGAUUGCC [C8A G21U G27A U32C C42U]: the self-cleavage worked out at 0.05.

GGCAGAGUUCAACACAACGUGGCAAACUGGCUGAGGGUAAACUGCC [C8U G17A G27C U34A C37G G40A]: the self-cleavage amounted to 0.42.

On to GGCAGAGCGCAACACAGCGUGGCAAGGUGGGUGUGGCUAGACUGCC [U9G A26G C31G], for which the self-cleavage was found to be 0.04.

For the variant GGCAGAGCUCAACACAGCGUGGAAGAGUGGCUGUGGCUAGACAGCC [C23A A25G U43A], the self-cleavage was 0.09.

GGCAGAGCUCAACAAAGAGUCGCAAAGUGGCUGUGGCUGGACUGCC [C15A C18A G21C A39G]: the self-cleavage is 0.02.

As to GGCCGAGCUCAACACAGCGUAGCAAAGUGGCCGUGGCUAGACUGCC [A4C G21A U32C], the self-cleavage came out at 0.06.

In the case of GGCAGAGCUCAAUACAGCGUCGCUGAGUGGCUGUGACUAGACUGCC [C13U G21C A24U A25G G36A], the self-cleavage was 0.16.

UACAGAGCUCAACACAGGGUGGCAAAGUGGCUGUGGCUAGACUGCC [G1U G2A C18G]: the self-cleavage is 0.05.

For GGCAGAUCUCAACACAGGCUGGCAAAGUUGCUGUGGCUAGACUGCC [G7U C18G G19C G29U], the self-cleavage stood at 0.21.

With GGCAGAACUCAAUACAGCGUGGCAAACUGGCUGUGGCUAGACUGCC [G7A C13U G27C], the self-cleavage amounted to 0.34.

As to GGCAGGGUUCGACACAGCGUGGCACAGUGGCUGUGGCUAGACUGCC [A6G C8U A11G A25C], the self-cleavage came out at 0.02.

Turning to GGCAGAGCUCAAUACAGCGUGGCAGAGUGGCUGUGGCUAGACUGCU [C13U A25G C46U], the self-cleavage is 0.05.

Consider GGCCGAGCACAACACAGUGUGGCAAAGUGGCUGUGGCUAGACUGAC [A4C U9A C18U C45A], for which the self-cleavage is 0.02.

With GCCAGAGAUCAACACAGCGUGGCAUAGUGGCUCUGGCUAGGCUGCC [G2C C8A A25U G33C A41G], the self-cleavage was determined as 0.21.

Take AGCAGAGCUCAACACAGCGUUGCAAAGUGGCUGUGGCUACACUGCC [G1A G21U G40C]: the self-cleavage was 0.07.

Consider GGCAGAGCUCAACACAAGGUGGCAAAGUGGCUUUGGCUAAACUGCC [G17A C18G G33U G40A], for which the self-cleavage stood at 0.02.
